Tested on: obese type 2 diabetic patients younger than 50 and not adequately controlled with metformin
Settings: human, in vivo

N[C@@H](CC(=O)N1CCn2c(nnc2C(F)(F)F)C1)Cc1cc(F)c(F)cc1F [sitagliptin]
Number of patients with TEAE: HLGT: Injuries NEC: 2 | Number of patients with TEAE: HLGT: Joint disorders: 3 | Number of patients with TEAE: HLGT: Lipid metabolism disorders: 3 | Number of patients with TEAE: HLGT: Menstrual cycle and uterine bleeding disorders: 0 | Number of patients with TEAE: HLGT: Neurological disorders NEC: 7 | Number of patients with TEAE: HLGT: Procedural related injuries and complications NEC: 0 | Number of patients with TEAE: HLGT: Purine and pyrimidine metabolism disorders: 3 | Number of patients with TEAE: HLGT: Respiratory disorders NEC: 6 | Number of patients with TEAE: HLGT: Sexual dysfunctions, disturbances and gender identity disorders: 1 | Number of patients with TEAE: HLGT: Sexual function and fertility disorders: 2 | Number of patients with TEAE: HLGT: Sleep disorders and disturbances: 3 | Number of patients with TEAE: HLGT: Urinary tract signs and symptoms: 4 | Number of patients with TEAE: HLGT: Urolithiases: 1 | Number of patients with TEAE: HLGT: Vascular hypertensive disorders: 4 | Number of patients with TEAE: HLGT: Viral infectious disorders: 11 | Number of patients with TEAE: HLGT: Vision disorders: 0 | Number of patients with TEAE: HLT: Abdominal and gastrointestinal infections: 7 | Number of patients with TEAE: HLT: Anxiety symptoms: 3 | Number of patients with TEAE: HLT: Appetite disorders: 0 | Number of patients with TEAE: HLT: Asthenic conditions: 4 | Number of patients with TEAE: HLT: Cardiac signs and symptoms NEC: 2 | Number of patients with TEAE: HLT: Coughing and associated symptoms: 2 | Number of patients with TEAE: HLT: Depressive disorders: 0 | Number of patients with TEAE: HLT: Dermatitis and eczema: 2 | Number of patients with TEAE: HLT: Diarrhoea (excl infective): 12 | Number of patients with TEAE: HLT: Digestive enzymes: 2 | Number of patients with TEAE: HLT: Disturbances in consciousness NEC: 1 | Number of patients with TEAE: HLT: Disturbances in initiating and maintaining sleep: 2 | Number of patients with TEAE: HLT: Dyspeptic signs and symptoms: 3 | Number of patients with TEAE: HLT: Ear infections: 2 | Number of patients with TEAE: HLT: Elevated triglycerides: 1 | Number of patients with TEAE: HLT: Erection and ejaculation conditions and disorders: 2 | Number of patients with TEAE: HLT: Flatulence, bloating and distension: 5 | Number of patients with TEAE: HLT: Gastritis (excl infective): 1 | Number of patients with TEAE: HLT: Gastrointestinal atonic and hypomotility disorders NEC: 3 | Number of patients with TEAE: HLT: General signs and symptoms NEC: 0 | Number of patients with TEAE: HLT: Headaches NEC: 15 | Number of patients with TEAE: HLT: Hepatocellular damage and hepatitis NEC: 0 | Number of patients with TEAE: HLT: Hyperglycaemic conditions NEC: 2 | Number of patients with TEAE: HLT: Hypoglycaemic conditions NEC: 5 | Number of patients with TEAE: HLT: Lipid metabolism and deposit disorders NEC: 2 | Number of patients with TEAE: HLT: Liver function analyses: 2 | Number of patients with TEAE: HLT: Lower respiratory tract and lung infections: 4 | Number of patients with TEAE: HLT: Menstruation and uterine bleeding NEC: 0 | Number of patients with TEAE: HLT: Nausea and vomiting symptoms: 11 | Number of patients with TEAE: HLT: Neurological signs and symptoms NEC: 5 | Number of patients with TEAE: HLT: Non-site specific procedural complications: 0 | Number of patients with TEAE: HLT: Oedema NEC: 4 | Number of patients with TEAE: HLT: Osteoarthropathies: 0 | Number of patients with TEAE: HLT: Pruritus NEC: 0 | Number of patients with TEAE: HLT: Purine metabolism disorders NEC: 3 | Number of patients with TEAE: HLT: Rate and rhythm disorders NEC: 2 | Number of patients with TEAE: HLT: Renal lithiasis: 1 | Number of patients with TEAE: HLT: Sexual desire disorders: 1 | Number of patients with TEAE: HLT: Skin injuries NEC: 0 | Number of patients with TEAE: HLT: Upper respiratory tract infections: 23 | Number of patients with TEAE: HLT: Upper respiratory tract signs and symptoms: 3 | Number of patients with TEAE: HLT: Urinary abnormalities: 3 | Number of patients with TEAE: HLT: Urinary tract infections: 2 | Number of patients with TEAE: HLT: Vascular hypertensive disorders NEC: 4 | Number of patients with TEAE: HLT: Viral infections NEC: 6 | Number of patients with TEAE: HLT: Visual disorders NEC: 0 | Number of patients with TEAE: Headache: 15 | Number of patients with TEAE: Hepatic steatosis: 0 | Number of patients with TEAE: Hyperglycaemia: 2 | Number of patients with TEAE: Hypertension: 4 | Number of patients with TEAE: Hypertriglyceridaemia: 1 | Number of patients with TEAE: Hypoglycaemia: 5 | Number of patients with TEAE: INFECTIONS AND INFESTATIONS: 51 | Number of patients with TEAE: Injection site pruritus: 0 | Number of patients with TEAE: Insomnia: 2 | Number of patients with TEAE: Joint injury: 2 | Number of patients with TEAE: Libido decreased: 1 | Number of patients with TEAE: Limb injury: 2 | Number of patients with TEAE: Lipase increased: 1 | Number of patients with TEAE: METABOLISM AND NUTRITION DISORDERS: 15 | Number of patients with TEAE: Malaise: 2 | Number of patients with TEAE: Microalbuminuria: 2 | Number of patients with TEAE: NERVOUS SYSTEM DISORDERS: 20 | Number of patients with TEAE: Nasopharyngitis: 12 | Number of patients with TEAE: Nausea: 11 | Number of patients with TEAE: Nephrolithiasis: 1 | Number of patients with TEAE: Oedema peripheral: 4 | Number of patients with TEAE: Oropharyngeal pain: 2 | Number of patients with TEAE: Osteoarthritis: 0 | Number of patients with TEAE: PSYCHIATRIC DISORDERS: 7 | Number of patients with TEAE: Pain in extremity: 2 | Number of patients with TEAE: Palpitations: 2 | Number of patients with TEAE: Pharyngitis: 3 | Number of patients with TEAE: Pharyngotonsillitis: 0 | Number of patients with TEAE: Procedural pain: 0 | Number of patients with TEAE: Pruritus: 0 | Number of patients with TEAE: RENAL AND URINARY DISORDERS: 7 | Number of patients with TEAE: REPRODUCTIVE SYSTEM AND BREAST DISORDERS: 2 | Number of patients with TEAE: RESPIRATORY, THORACIC AND MEDIASTINAL DISORDERS: 8 | Number of patients with TEAE: Respiratory tract infection: 2 | Number of patients with TEAE: SKIN AND SUBCUTANEOUS TISSUE DISORDERS: 4 | Number of patients with TEAE: Sinusitis: 1 | Number of patients with TEAE: Somnolence: 1 | Number of patients with TEAE: Stress: 0 | Number of patients with TEAE: Tachycardia: 2 | Number of patients with TEAE: Tooth infection: 0 | Number of patients with TEAE: Upper respiratory tract infection: 6 | Number of patients with TEAE: Urinary tract infection: 2 | Number of patients with TEAE: VASCULAR DISORDERS: 5 | Number of patients with TEAE: Vision blurred: 0 | Number of patients with TEAE: Vomiting: 0 | Patients with any TEAE: 98 (60.9%) n (%) | Patients with any TEAE leading to permanent treatment discontinuation: 5 (3.1%) n (%) | Patients with any serious TEAE: 3 (1.9%) n (%) | Serious TEAE: Abscess limb: 1 (0.6%) n (%) | Serious TEAE: Anaphylactic reaction: 0 n (%) | Serious TEAE: Any class: 3 (1.9%) n (%) | Serious TEAE: Arteriovenous fistula: 0 n (%) | Serious TEAE: Bile duct stone: 1 (0.6%) n (%) | Serious TEAE: HEPATOBILIARY DISORDERS: 1 (0.6%) n (%) | Serious TEAE: HLGT: Allergic conditions: 0 n (%) | Serious TEAE: HLGT: Bile duct disorders: 1 (0.6%) n (%) | Serious TEAE: HLGT: Infections - pathogen unspecified: 1 (0.6%) n (%) | Serious TEAE: HLGT: Renal disorders (excl nephropathies): 1 (0.6%) n (%) | Serious TEAE: HLGT: Urolithiases: 0 n (%) | Serious TEAE: HLGT: Vascular disorders NEC: 0 n (%) | Serious TEAE: HLT: Anaphylactic responses: 0 n (%) | Serious TEAE: HLT: Infections NEC: 1 (0.6%) n (%) | Serious TEAE: HLT: Obstructive bile duct disorders (excl neoplasms): 1 (0.6%) n (%) | Serious TEAE: HLT: Renal failure and impairment: 1 (0.6%) n (%) | Serious TEAE: HLT: Renal lithiasis: 0 n (%) | Serious TEAE: HLT: Vascular malformations and acquired anomalies: 0 n (%) | Serious TEAE: IMMUNE SYSTEM DISORDERS: 0 n (%) | Serious TEAE: INFECTIONS AND INFESTATIONS: 1 (0.6%) n (%) | Serious TEAE: Nephrolithiasis: 0 n (%) | Serious TEAE: RENAL AND URINARY DISORDERS: 1 (0.6%) n (%) | Serious TEAE: Renal failure: 1 (0.6%) n (%) | Serious TEAE: VASCULAR DISORDERS: 0 n (%) | TEAE leading to permanent treatment discontinuation: Abdominal pain upper: 0 n (%) | TEAE leading to permanent treatment discontinuation: Abscess limb: 1 (0.6%) n (%) | TEAE leading to permanent treatment discontinuation: Alanine aminotransferase increased: 0 n (%) | TEAE leading to permanent treatment discontinuation: Anaphylactic reaction: 0 n (%) | TEAE leading to permanent treatment discontinuation: Any class: 5 (3.1%) n (%) | TEAE leading to permanent treatment discontinuation: Bile duct stone: 1 (0.6%) n (%) | TEAE leading to permanent treatment discontinuation: Diarrhoea: 0 n (%) | TEAE leading to permanent treatment discontinuation: GASTROINTESTINAL DISORDERS: 0 n (%) | TEAE leading to permanent treatment discontinuation: HEPATOBILIARY DISORDERS: 1 (0.6%) n (%) | TEAE leading to permanent treatment discontinuation: HLGT: Allergic conditions: 0 n (%) | TEAE leading to permanent treatment discontinuation: HLGT: Bile duct disorders: 1 (0.6%) n (%) | TEAE leading to permanent treatment discontinuation: HLGT: Gastrointestinal investigations: 0 n (%) | TEAE leading to permanent treatment discontinuation: HLGT: Gastrointestinal motility and defaecation conditions: 0 n (%) | TEAE leading to permanent treatment discontinuation: HLGT: Gastrointestinal signs and symptoms: 0 n (%) | TEAE leading to permanent treatment discontinuation: HLGT: Haematology investigations (incl blood groups): 1 (0.6%) n (%) | TEAE leading to permanent treatment discontinuation: HLGT: Hepatobiliary investigations: 0 n (%) | TEAE leading to permanent treatment discontinuation: HLGT: Infections - pathogen unspecified: 1 (0.6%) n (%) | TEAE leading to permanent treatment discontinuation: HLGT: Neurological disorders NEC: 1 (0.6%) n (%) | TEAE leading to permanent treatment discontinuation: HLGT: Renal disorders (excl nephropathies): 1 (0.6%) n (%) | TEAE leading to permanent treatment discontinuation: HLT: Anaphylactic responses: 0 n (%) | TEAE leading to permanent treatment discontinuation: HLT: Diarrhoea (excl infective): 0 n (%) | TEAE leading to permanent treatment discontinuation: HLT: Digestive enzymes: 0 n (%) | TEAE leading to permanent treatment discontinuation: HLT: Disturbances in consciousness NEC: 1 (0.6%) n (%) | TEAE leading to permanent treatment discontinuation: HLT: Infections NEC: 1 (0.6%) n (%) | TEAE leading to permanent treatment discontinuation: HLT: Liver function analyses: 0 n (%) | TEAE leading to permanent treatment discontinuation: HLT: Nausea and vomiting symptoms: 0 n (%) | TEAE leading to permanent treatment discontinuation: HLT: Obstructive bile duct disorders (excl neoplasms): 1 (0.6%) n (%) | TEAE leading to permanent treatment discontinuation: HLT: Platelet analyses: 1 (0.6%) n (%) | TEAE leading to permanent treatment discontinuation: HLT: Renal failure and impairment: 1 (0.6%) n (%) | TEAE leading to permanent treatment discontinuation: IMMUNE SYSTEM DISORDERS: 0 n (%) | TEAE leading to permanent treatment discontinuation: INFECTIONS AND INFESTATIONS: 1 (0.6%) n (%) | TEAE leading to permanent treatment discontinuation: INVESTIGATIONS: 1 (0.6%) n (%) | TEAE leading to permanent treatment discontinuation: Lipase increased: 0 n (%) | TEAE leading to permanent treatment discontinuation: NERVOUS SYSTEM DISORDERS: 1 (0.6%) n (%) | TEAE leading to permanent treatment discontinuation: Nausea: 0 n (%) | TEAE leading to permanent treatment discontinuation: Platelet count decreased: 1 (0.6%) n (%) | TEAE leading to permanent treatment discontinuation: RENAL AND URINARY DISORDERS: 1 (0.6%) n (%) | TEAE leading to permanent treatment discontinuation: Renal failure: 1 (0.6%) n (%) | TEAE leading to permanent treatment discontinuation: Somnolence: 1 (0.6%) n (%) | TEAE leading to permanent treatment discontinuation: Vomiting: 0 n (%) | patients with TEAE diarrhea: 7.5% | percentage of patients with TEAEs leading to treatment discontinuation: 3.1% | incidence of treatment emergent adverse events (TEAEs) (24 weeks): 60.9% | patients with TEAE headache (24 weeks): 9.3% | patients with TEAE nausea (24 weeks): 6.8% | patients with a serious TEAE (24 weeks): 1.9% | % of patients with TEAE: HLT: Gastrointestinal and abdominal pains (excl oral and throat) (po): 6.2% | Number of patients with TEAE: HLT: Dental and oral soft tissue infections (po): 0 | Number of patients with TEAE: HLT: Gastrointestinal and abdominal pains (excl oral and throat) (po): 10 | TEAE leading to permanent treatment discontinuation: HLT: Gastrointestinal and abdominal pains (excl oral and throat) (po): 0 n (%)

Source: patent US8735349B2, “Method for improving glucose tolerance in a diabetes type 2 patient of younger than 50 years and having postprandial plasma glucose concentration of at least 14 mmol/L” (priority 2011, dated 2014)
